Source: article PMC2527638 (Toxicological Sciences, 2008)

What was measured:
T47D-ERβ cells [1] = details: 0 ng/ml tetracycline, 96 h, resazurin; at 3nM PPT, 100nM DPN, 1nM E2
[2] = system: ERβ expression in T47D-ERβ cells; experiment: ERβ expression-related EGFP fluorescence in cell lysate of T47D-ERβ cells; assay type: cell-based, human; details: 24 h exposure
T47D-ERβ cells [3] = experiment: Cytotoxicity of tetracycline in T47D-ERβ cells; assay type: cell-based, human; details: data not shown

SMILES | Maximum induced proliferation in the absence of tetracycline (full expression of ERβ) (T47D-ERβ cells [1]) [%] | Concentration resulting in total fluorescence suppression [2] | Concentration causing cytotoxicity (T47D-ERβ cells [3])
CCCc1c(-c2ccc(O)cc2)nn(-c2ccc(O)cc2)c1-c1ccc(O)cc1 [PPT, 4,4′,4″-(4-propyl-[1H]pyrazole-1,3,5-triyl) Tris-phenol] | 153 |  | 
CN(C)[C@@H]1C(O)=C(C(N)=O)C(=O)[C@@]2(O)C(O)=C3C(=O)c4c(O)cccc4[C@@](C)(O)[C@H]3C[C@@H]12 [tetracycline, Tetracycline] |  | above 150 ng/ml | above 2000 ng/ml
